Experimental data published in PubChem BioAssay AID743279 (National Center for Advancing Translational Sciences (NCATS), 2014).
The whole screen tested about 360,000 compounds, of which about 17,000 (4.7%) were called active. Inconclusive results, whose numbers are uncertain, are shown with a selection of clear calls. No stated cut-off is given here; in the data, active means activity change below about -50%; inconclusive means mostly about -30% to -49%; inactive means weaker than that.
On the % scale 0 is the no-effect control and ±100 the full control effect.

Assay: qHTS for Inhibitors of Inflammasome Signaling: IL-1-beta AlphaLISA Primary Screen
Conditions: THP-1 LPS/ATP IL-1B secretion, 16 h; at 57.5 µM, active compounds read low
Method in brief: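 Secreted IL-1B measured by AlphaLISA bead assay after 16 h compound exposure of THP-1 cells; compounds (final up to 57.5 uM) added 1 h before LPS (250 ng/mL) and ATP (1.25 mM) stimulation; lower signal means less secretion.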
In the case of Nc1ccc(S(=O)(=O)Nc2nccc(/C=C/c3cccc([N+](=O)[O-])c3)n2)cc1, the activity change is reported as inconclusive: -40.9%.
For CN(CC(=O)Nc1ccc(Cl)cc1)CC(=O)Nc1sc2c(c1C(N)=O)CCC2, the activity change was inconclusive: -33.4%.
For Cc1ccc(S(=O)(=O)Nc2ccc3c(c2)C(=O)N([C@H](C)CO)C[C@H](C)[C@@H](CN(C)Cc2ccc(-c4ccccc4)cc2)O3)cc1, the activity change was inconclusive: -44.5%.
With O=S(=O)(c1cccs1)N1CN(Cc2cccs2)c2nc3ccccc3nc21 the activity change was inactive: -10.3%.
For CC(C)Cc1nc(Nc2ccccc2C#N)c2nnn(Cc3ccccc3)c2n1, the activity change was inconclusive: -45.7%.
For COc1cc(NC(=O)CN(c2ccc(C)cc2)S(=O)(=O)c2c(C)n[nH]c2C)cc(OC)c1, the activity change was inconclusive: -45.8%.
With CCCCn1nnnc1C(c1ccccc1)N1CCN(c2ccc(C(F)(F)F)cn2)CC1 (stereo not given) the activity change was inconclusive: -48.9%.
For O=C(C1CCN(S(=O)(=O)c2ccc(Cl)c(C(F)(F)F)c2)CC1)N1CCC1, the activity change was inactive: 3.31%.
In the case of Cc1onc(-c2ccccc2)c1C(=O)Nc1cc(C(F)(F)F)ccc1N1CCOCC1, the activity change is reported as inactive: 66.7%.
In the case of O=C(NCCCN1CCOCC1)c1cc2c([nH]c3ccccc32)c(-c2cccc(Br)c2)n1, the activity change is reported as active: -73.3%.
In the case of CC(NC(=O)COc1ccccc1)C(=O)NC1=NCCS1 (stereo not given), the activity change is reported as active: -56.1%.
With O=C(c1cc(-c2cccc(O)c2)on1)N1CCOCC1 the activity change was inconclusive: -41.7%.
With CC(C)C(=O)Nc1cccc(NC(=O)c2cccnc2)c1 the activity change was inactive: 9.65%.
In the case of OC(CNC1Cc2ccccc2C1)COc1ccc(F)cc1 (stereo not given), the activity change is reported as inconclusive: -37.1%.
For N#C/C(=C\c1cccs1)C(=O)c1ccccc1Cl, the activity change was active: -97.7%.
For O=C(COC(=O)/C=C/c1ccc(C(F)(F)F)cc1)NC1CCS(=O)(=O)C1 (stereo not given), the activity change was inactive: -1.1%.
For COC(=O)c1ccc(C2C(Oc3ccc(OC)cc3)C(=O)N2CCc2ccc(OC)c(OC)c2)cc1 (stereo not given), the activity change was inactive: 15%.
For N=c1ccn(Cc2c(Cl)cccc2Cl)cc1, the activity change was inactive: -12.9%.
With N#Cc1c(-c2ccccc2)nc(-c2ccccc2)nc1N1CCOCC1 the activity change was inconclusive: -30.3%.
With Cc1nc2ccccn2c1C(=O)CSc1ccccc1 the activity change was inactive: -23.6%.
For COc1ccc(CCNc2nc(C)nc3c2oc2ccccc23)cc1OC, the activity change was inconclusive: -33%.
For CC(=O)C1=CCC(c2ccc(C)cc2)N(S(=O)(=O)c2ccc(Cl)cc2)C1 (stereo not given), the activity change was inconclusive: -38.9%.
In the case of Clc1ccc(SCCOCCN2CCc3ccccc3C2)cc1, the activity change is reported as inconclusive: -44.4%.
In the case of Nc1nnc(/C=C/c2ccccc2Cl)s1, the activity change is reported as inactive: -20.7%.
With CCOC(=O)[C@H]1[C@H]2COc3ccc(Br)cc3[C@@H]2N2C(=O)c3c(C)cc(C)cc3NC(=O)[C@@]12C the activity change was inconclusive: -34%.
For CCC(=O)c1ccc(OCC(=O)OCC(=O)N(CCC#N)c2ccc3c(c2)OCCO3)cc1, the activity change was inactive: 17%.
For O=[N+]([O-])c1ccc(Cl)c(S(=O)(=O)Nc2ccc(-c3ccc(N4CCCC4)nn3)cc2)c1, the activity change was active: -84.5%.
With CCOc1ccc(NC(=S)Nc2ccccc2C2(C)CC2)cc1 the activity change was inconclusive: -34.8%.
With Clc1ccc(COn2c(-c3ccccc3)nc3ccccc32)cc1 the activity change was inconclusive: -36.2%.
With Cc1ccc(Oc2ccc(C(F)(F)F)cc2[N+](=O)[O-])c([N+](=O)[O-])n1 the activity change was inconclusive: -44.5%.
With CCc1ccc2[nH]c(=O)c(CN(Cc3ccccc3OC)Cc3nnnn3Cc3ccco3)cc2c1 the activity change was active: -81.8%.
For COC(=O)c1c(-c2cccc(C)c2)csc1N, the activity change was inconclusive: -36.4%.
With CC(C)Oc1ccc(F)cc1-c1cc(C(=O)NCc2ccc(C(F)(F)F)cc2)[nH]n1 the activity change was inconclusive: -46.5%.
For COCCOc1cc(-n2cccc2)c(Cl)cc1Cl, the activity change was inactive: 8.68%.
In the case of CCN1CCN(c2ccc(S(=O)(=O)N3CCCCC3)cc2NC(=O)/C=C/c2ccc(F)cc2)CC1, the activity change is reported as inconclusive: -49.3%.
With CC1CCN(C(=O)c2ccc3c(c2NCCO)C(=O)c2ccccc2C3=O)CC1 the activity change was inactive: -22.9%.
For C[C@@H]1CN(S(=O)C(C)(C)C)[C@@H](CCO)/C1=C\CCO (stereo not given in full), the activity change was inactive: 16.8%.
For Cc1ccccc1-n1nc2c(c1NC(=O)/C=C\c1ccc3c(c1)OCO3)CSC2, the activity change was inconclusive: -36.3%.
With Cc1nc2ccccc2n1CC(O)COc1ccc(Br)cc1 (stereo not given) the activity change was inconclusive: -36.4%.
With CC1(C)CN(c2ccccc2)N(C(=O)c2ccc(F)cc2)C1=O the activity change was inactive: 0.0462%.
In the case of Cc1ccc(N2C(=O)CC(N(CCc3ccccc3)C(=S)Nc3ccc(N(C)C)cc3)C2=O)cc1 (stereo not given), the activity change is reported as inconclusive: -30.3%.
For Cc1ccc(C(=O)/C=C\NCc2ccccc2)cc1, the activity change was inconclusive: -37%.
With CCOc1ccc(-c2c(C(=O)N/N=C/c3ccc(C)s3)nnn2-c2nonc2N)cc1 the activity change was inconclusive: -39.2%.
For CN(C)CCNC(=S)Nc1cccc(Cl)c1, the activity change was active: -66%.
For O=C(CCl)N(Cc1ccccc1)c1ccccc1, the activity change was active: -95.9%.
With COCCCN=C1NN=C(c2cc(C)n(Cc3ccccc3Cl)c2C)CS1 the activity change was inconclusive: -36.7%.
In the case of CC(CCc1ccccn1)(CCc1ccccn1)C(=O)c1ccccc1, the activity change is reported as inconclusive: -32.7%.
For O=C(Nc1ccccc1)Nc1ccc(-n2ccc(C(F)(F)F)n2)cc1, the activity change was inconclusive: -35.8%.
For Cc1cc(C)n(-c2c(C)[nH]c3ccccc23)n1, the activity change was inconclusive: -36.7%.
For CCN(CC)c1ccc(C(=O)Nc2ccccc2)cc1[N+](=O)[O-], the activity change was active: -95.6%.
In the case of CC(C)CNC(=O)c1ccc(COc2ccc(Cl)cc2Cl)o1, the activity change is reported as inconclusive: -49.2%.
In the case of COc1ccc([N+](=O)[O-])cc1N(CC(=O)Nc1ccccc1C(=O)NC(C)C)S(C)(=O)=O, the activity change is reported as inactive: 35.3%.
For CCN(CC)C(=O)CSc1nc2cc3c(cc2c(=O)n1CCCC(=O)NCCc1ccc(OC)c(OC)c1)OCO3, the activity change was inconclusive: -47%.
For Brc1cccc(-c2n[nH]c(-c3ccccc3)n2)c1, the activity change was inconclusive: -46.2%.
In the case of O=C(CN1C(=O)NC2(CCCCC2)C1=O)Nc1ccc2c(c1)OCCCO2, the activity change is reported as inconclusive: -46.9%.
